The supplement of paper PMC11876631
Numbering of substitutions follows the chain as printed. Numbers in names are those of the source. ± gives the standard deviation of the averaged measurements. Laboratory Escherichia coli strains with one amino-acid change in an essential protein, pooled on minimal glucose agar with carbenicillin or gentamicin at twice the control MIC (plus kanamycin and chloramphenicol for the plasmids), 48 h. Fold change of barcode share against drug-free plates; higher = less susceptible. Active = above 20 in both replicates (the paper's putatively resistant). '<' = one read or none on drug, '>' = one read or none on a drug-free plate. Shares are relative, so most strains fall below 1 when a few take over. Listed are strains with at least 15 reads on both drug-free plates, and hits; most hits rest on fewer reference reads. Replicate rank correlation about 0.5. Edits are read from barcodes.

Target: Escherichia coli (laboratory strain)
Test: barcode share on antibiotic plates over drug-free plates; higher = less susceptible
Experimental: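 A pool of E. coli strains, each edited to carry one amino-acid change in an essential protein, was grown for 48 h on minimal glucose agar with or without antibiotic; strain barcodes were sequenced; mean of two replicates.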

[1] = antibiotic: carbenicillin, 2× MIC (3.1 µg/mL)
[2] = antibiotic: gentamicin, 2× MIC (MIC 0.45 µg/mL)

B1: purE V13A (protein)
chain: MSSRNNPARVAIAMGSKSDWATMQFAAEIFEILNVPHHVEVVSAHRTPDKLFSFAESAEENGYQVIIAGAGGAAHLPGMIAAKTLVPVLGVPVQSAALSGVDSLYSIVQMPRGIPVGTLAIGKAGAANAALLAAQILATHDKELHQRLNDWRKAQTDEVLENPDPRGAA
B1 was tested, and the “fold change of barcode share” value [1] was 0.582 ± 0.063 and the “fold change of barcode share” value [2] was less than 0.011.

B2: purE V42A (protein)
chain: B1 chain with A13V, V42A
B2 was tested, and the “fold change of barcode share” value [1] was 0.4583 ± 0.0026 and the “fold change of barcode share” value [2] was 0.00568 ± 0.0039.

B3: purD V308D (protein)
chain: MKVLVIGNGGREHALAWKAAQSPLVETVFVAPGNAGTALEPALQNVAIGVTDIPALLDFAQNEKIDLTIVGPEAPLVKGVVDTFRAAGLKIFGPTAGAAQLEGSKAFTKDFLARHKIPTAEYQNFTEVEPALAYLREKGAPIVIKADGLAAGKGVIVAMTLEEAEAAVHDMLAGNAFGDAGHRIVIEEFLDGEEASFIVMVDGEHVLPMATSQDHKRVGDKDTGPNTGGMGAYSPAPVVTDDVHQRTMERIIWPTVKGMAAEGNTYTGFLYAGLMIDKQGNPKVIEFNCRFGDPETQPIMLRMKSDLDELCLAACESKLDEKTSEWDERASLGVVMAAGGYPGDYRTGDVIHGLPLEEVAGGKVFHAGTKLADDEQVVTNGGRVLCVTALGHTVAEAQKRAYALMTDIHWDDCFCRKDIGWRAIEREQN
For B3, the “fold change of barcode share” value [1] was 34.4 [active].

B4: purD M200Q (protein)
chain: B3 chain with M200Q, D308V
With B4 the “fold change of barcode share” value [1] was 0.758 ± 0.077.

B5: purD M200D (protein)
chain: B3 chain with M200D, D308V
For B5, the “fold change of barcode share” value [1] was > 58 [active].

B6: purD V308P (protein)
chain: B3 chain with D308P
For B6, the “fold change of barcode share” value [1] was 0.962 ± 0.25 and the “fold change of barcode share” value [2] was 0.00501 ± 0.0012.

B7: purD V256D (protein)
chain: B3 chain with V256D, D308V
B7 was tested, and the “fold change of barcode share” value [1] was 12.4 ± 3 and the “fold change of barcode share” value [2] was less than 0.0108.

B8: purD V256Q (protein)
chain: B3 chain with V256Q, D308V
B8 was tested, and the “fold change of barcode share” value [1] was 1.03 ± 0.22 and the “fold change of barcode share” value [2] was 0.0117 ± 0.0023.

B9: purD M200A (protein)
chain: B3 chain with M200A, D308V
In the case of B9, the “fold change of barcode share” value [1] is reported as 1.07 ± 0.21 and the “fold change of barcode share” value [2] is reported as 0.0108 ± 0.0076.

B10: purD M200P (protein)
chain: B3 chain with M200P, D308V
With B10 the “fold change of barcode share” value [1] was > 45.2 [active].

B11: purD V256W (protein)
chain: B3 chain with V256W, D308V
With B11 the “fold change of barcode share” value [1] was 30 [active] and the “fold change of barcode share” value [2] was 0.0376 ± 0.00058.

B12: purD V256A (protein)
chain: B3 chain with V256A, D308V
With B12 the “fold change of barcode share” value [1] was 0.714 ± 0.014 and the “fold change of barcode share” value [2] was 0.124 ± 0.17.
